The text below walks through data of the supplement of paper PMC12217912.

Sequences and labels used below:
B1: TEV protease; numbered along this chain (parent)
chain: MGESLFKGPRDYNPISSSICHLTNESDGHTTSLYGIGFGPFIITNKHLFRRNNGTLVVQSLHGVFKVKDTTTLQQHLVDGRDMIIIRMPKDFPPFPQKLKFREPQREERICLVTTNFQTKSMSSMVSDTSCTFPSGDGIFWKHWIQTKDGQCGSPLVSTRDGFIVGIHSASNFTNTNNYFTSVPKNFMELLTNQEAQQWVSGWRLNADSVLWGGHKVFMVKPEEPFQPVKEATQL

This is one part of the list. Sequences were assembled here from the parent chain. Values near 0.05 are background.

In this test the parent is B1. The test can be described thus: raw area under fraction-flipped curve 0-4 h after induction (AUC4h, not background-subtracted), DNA-recorder readout of cleavage of the substrate (dimensionless); higher = more cleavage of the substrate by the protease variant. Conditions: temperature: 34 °C; time window: 0-4 h after rhamnose induction. As to the method: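 In vivo DNA recorder in E. coli TOP10(DE3) ΔrhaA at 34 °C. Each TEVp single-site mutant (parent TEVp 0) is paired with a single-site variant of the 7-mer TEVs (canonical ENLYFQ|S). The substrate sits between flexible linkers in a Bxb1-sfGFP-TEVs-SsrA fusion, so cleavage stabilises Bxb1 and speeds flipping of a recombination array, read by NGS. The value is the raw area under the fraction-flipped curve over 0-4 h after rhamnose induction (AUC4h), with ≥20 reads per time point. It is not background-subtracted; inactive controls average about 0.047.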
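Also: Bxb1 expression induced with 0.2% (w/v) L-rhamnose at OD600 near 0.5, cultures sampled hourly, flipped fraction per protease–substrate barcode pair counted by paired-end Illumina sequencing.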

Regarding MGESLFKGPRDYNPISSSICHLTNESDGHTTSVYGIGFGPFIITNKHLFRRNNGTLVVQSLHGVFKVKDTTTLQQHLVDGRDMIIIRMPKDFPPFPQKLKFREPQREERICLVTTNFQTKSMSSMVSDTSCTFPSGDGIFWKHWIQTKDGQCGSPLVSTRDGFIVGIHSASNFTNTNNYFTSVPKNFMELLTNQEAQQWVSGWRLNADSVLWGGHKVFMVKPEEPFQPVKEATQL [L33V], the “area with substrate ENLYCQS” value was determined as 0.0956, the “area with substrate ENLYDQS” value stood at 0.0571, the “area with substrate ENLYEQS” value worked out at 0.0614 and the “area with substrate ENLYGQS” value came out at 0.0719. The “area with substrate ENLYHQS” value was determined as 0.0676, the “area with substrate ENLYKQS” value was 0.0674, the “area with substrate ENLYLQS” value was found to be 0.0712 and the “area with substrate ENLYMQS” value is 0.0853. The “area with substrate ENLYNQS” value came to 0.0635, the “area with substrate ENLYPQS” value was 0.0602, the “area with substrate ENLYRQS” value was found to be 0.0635 and the “area with substrate ENLYSQS” value was determined as 0.0701. For the same variant, the “area with substrate ENLYWQS” value was determined as 0.0524.
Take MGESLFKGPRDYNPISSSICHLTNESDGHTTSLYGIGFGPFIITQKHLFRRNNGTLVVQSLHGVFKVKDTTTLQQHLVDGRDMIIIRMPKDFPPFPQKLKFREPQREERICLVTTNFQTKSMSSMVSDTSCTFPSGDGIFWKHWIQTKDGQCGSPLVSTRDGFIVGIHSASNFTNTNNYFTSVPKNFMELLTNQEAQQWVSGWRLNADSVLWGGHKVFMVKPEEPFQPVKEATQL [N45Q]: the “area with substrate ENLYCQS” value turned out to be 0.063, the “area with substrate ENLYDQS” value stood at 0.0659, the “area with substrate ENLYEQS” value worked out at 0.0551 and the “area with substrate ENLYGQS” value worked out at 0.0832. In addition, the “area with substrate ENLYHQS” value was 0.0576, the “area with substrate ENLYIQS” value stood at 0.0627, the “area with substrate ENLYKQS” value was determined as 0.0438 and the “area with substrate ENLYLQS” value stood at 0.0543. The “area with substrate ENLYMQS” value was 0.0371, the “area with substrate ENLYNQS” value came to 0.0673, the “area with substrate ENLYPQS” value stood at 0.0657 and the “area with substrate ENLYQQS” value is 0.0688. Moreover, the “area with substrate ENLYRQS” value was 0.0588, the “area with substrate ENLYSQS” value was 0.0636, the “area with substrate ENLYVQS” value was 0.0541 and the “area with substrate ENLYWQS” value came to 0.059.
MGESLFKGPRDYNPISSSICHLTNESDGHTTSLYGIGFSPFIITNKHLFRRNNGTLVVQSLHGVFKVKDTTTLQQHLVDGRDMIIIRMPKDFPPFPQKLKFREPQREERICLVTTNFQTKSMSSMVSDTSCTFPSGDGIFWKHWIQTKDGQCGSPLVSTRDGFIVGIHSASNFTNTNNYFTSVPKNFMELLTNQEAQQWVSGWRLNADSVLWGGHKVFMVKPEEPFQPVKEATQL [G39S]: the “area with substrate ENLYCQS” value came to 0.0286, the “area with substrate ENLYDQS” value is 0.0434, the “area with substrate ENLYEQS” value is 0.0426 and the “area with substrate ENLYGQS” value worked out at 0.0496. Besides, the “area with substrate ENLYHQS” value is 0.0428, the “area with substrate ENLYIQS” value was 0.0567, the “area with substrate ENLYLQS” value came out at 0.0379 and the “area with substrate ENLYMQS” value is 0.0525. In addition, the “area with substrate ENLYNQS” value was 0.0537, the “area with substrate ENLYPQS” value was 0.0439, the “area with substrate ENLYQQS” value is 0.051 and the “area with substrate ENLYRQS” value was 0.0466. Moreover, the “area with substrate ENLYTQS” value is 0.032, the “area with substrate ENLYWQS” value was determined as 0.0411 and the “area with substrate ENLYYQS” value worked out at 0.0428.
Turning to MGESLFKGPRDYNPISSSICHLTNESDGHTTSLYGIGFDPFIITNKHLFRRNNGTLVVQSLHGVFKVKDTTTLQQHLVDGRDMIIIRMPKDFPPFPQKLKFREPQREERICLVTTNFQTKSMSSMVSDTSCTFPSGDGIFWKHWIQTKDGQCGSPLVSTRDGFIVGIHSASNFTNTNNYFTSVPKNFMELLTNQEAQQWVSGWRLNADSVLWGGHKVFMVKPEEPFQPVKEATQL [G39D], the “area with substrate ENLYCQS” value stood at 0.0416, the “area with substrate ENLYDQS” value is 0.0476, the “area with substrate ENLYEQS” value amounted to 0.0498 and the “area with substrate ENLYGQS” value was 0.0514. In addition, the “area with substrate ENLYLQS” value was 0.0474, the “area with substrate ENLYMQS” value was found to be 0.0531, the “area with substrate ENLYNQS” value worked out at 0.0434 and the “area with substrate ENLYPQS” value was found to be 0.0426. The “area with substrate ENLYRQS” value stood at 0.0501, the “area with substrate ENLYSQS” value is 0.0479, the “area with substrate ENLYTQS” value came to 0.0396 and the “area with substrate ENLYVQS” value was determined as 0.0438. The “area with substrate ENLYWQS” value is 0.0447 and the “area with substrate ENLYYQS” value is 0.0499.
For MGESLFKGPRDYNPISSSICHLTNESDGHTTSLYGIGFGPFIIQNKHLFRRNNGTLVVQSLHGVFKVKDTTTLQQHLVDGRDMIIIRMPKDFPPFPQKLKFREPQREERICLVTTNFQTKSMSSMVSDTSCTFPSGDGIFWKHWIQTKDGQCGSPLVSTRDGFIVGIHSASNFTNTNNYFTSVPKNFMELLTNQEAQQWVSGWRLNADSVLWGGHKVFMVKPEEPFQPVKEATQL [T44Q], the “area with substrate ENLYCQS” value was 0.038, the “area with substrate ENLYDQS” value came to 0.0538, the “area with substrate ENLYEQS” value was 0.0378 and the “area with substrate ENLYGQS” value turned out to be 0.0307. Besides, the “area with substrate ENLYHQS” value stood at 0.0441, the “area with substrate ENLYKQS” value was 0.0458, the “area with substrate ENLYMQS” value is 0.0411 and the “area with substrate ENLYNQS” value turned out to be 0.0488. Also, the “area with substrate ENLYQQS” value amounted to 0.0526, the “area with substrate ENLYSQS” value was found to be 0.0515, the “area with substrate ENLYVQS” value came to 0.0439 and the “area with substrate ENLYWQS” value was determined as 0.0425. For the same variant, the “area with substrate ENLYYQS” value came to 0.0598.
Consider MGESLFKGPRDYNPISSSICHLTNESDGHTTSLYGIGFGPFIVTNKHLFRRNNGTLVVQSLHGVFKVKDTTTLQQHLVDGRDMIIIRMPKDFPPFPQKLKFREPQREERICLVTTNFQTKSMSSMVSDTSCTFPSGDGIFWKHWIQTKDGQCGSPLVSTRDGFIVGIHSASNFTNTNNYFTSVPKNFMELLTNQEAQQWVSGWRLNADSVLWGGHKVFMVKPEEPFQPVKEATQL [I43V], for which the “area with substrate ENLYCQS” value was 0.108, the “area with substrate ENLYDQS” value amounted to 0.068, the “area with substrate ENLYEQS” value amounted to 0.0584 and the “area with substrate ENLYGQS” value was determined as 0.0617. Also, the “area with substrate ENLYHQS” value worked out at 0.0768, the “area with substrate ENLYIQS” value is 0.072, the “area with substrate ENLYKQS” value stood at 0.0678 and the “area with substrate ENLYMQS” value came out at 0.0736. Besides, the “area with substrate ENLYQQS” value came to 0.069, the “area with substrate ENLYRQS” value worked out at 0.0657, the “area with substrate ENLYSQS” value is 0.0734 and the “area with substrate ENLYTQS” value was found to be 0.0557. Further, the “area with substrate ENLYVQS” value stood at 0.0887, the “area with substrate ENLYWQS” value came out at 0.102 and the “area with substrate ENLYYQS” value is 0.0657.
Turning to MGESLFKGPRDYNPISSSICHLTNESDGHTGSLYGIGFGPFIITNKHLFRRNNGTLVVQSLHGVFKVKDTTTLQQHLVDGRDMIIIRMPKDFPPFPQKLKFREPQREERICLVTTNFQTKSMSSMVSDTSCTFPSGDGIFWKHWIQTKDGQCGSPLVSTRDGFIVGIHSASNFTNTNNYFTSVPKNFMELLTNQEAQQWVSGWRLNADSVLWGGHKVFMVKPEEPFQPVKEATQL [T31G], the “area with substrate ENLYCQS” value worked out at 0.0667, the “area with substrate ENLYEQS” value came out at 0.0553, the “area with substrate ENLYGQS” value stood at 0.0482 and the “area with substrate ENLYHQS” value was 0.059. Also, the “area with substrate ENLYIQS” value was determined as 0.0931, the “area with substrate ENLYKQS” value amounted to 0.0665, the “area with substrate ENLYMQS” value is 0.069 and the “area with substrate ENLYNQS” value is 0.0577. Besides, the “area with substrate ENLYQQS” value turned out to be 0.0595, the “area with substrate ENLYRQS” value came out at 0.0535, the “area with substrate ENLYSQS” value was found to be 0.0689 and the “area with substrate ENLYVQS” value is 0.0787. Also, the “area with substrate ENLYWQS” value was 0.0654 and the “area with substrate ENLYYQS” value came to 0.0545.
For MGESLFKGPRDYNPISSSICHLTNESDGHTTNLYGIGFGPFIITNKHLFRRNNGTLVVQSLHGVFKVKDTTTLQQHLVDGRDMIIIRMPKDFPPFPQKLKFREPQREERICLVTTNFQTKSMSSMVSDTSCTFPSGDGIFWKHWIQTKDGQCGSPLVSTRDGFIVGIHSASNFTNTNNYFTSVPKNFMELLTNQEAQQWVSGWRLNADSVLWGGHKVFMVKPEEPFQPVKEATQL [S32N], the “area with substrate ENLYCQS” value was found to be 0.094, the “area with substrate ENLYDQS” value turned out to be 0.0641, the “area with substrate ENLYEQS” value came out at 0.0489 and the “area with substrate ENLYGQS” value was found to be 0.0689. Also, the “area with substrate ENLYHQS” value amounted to 0.0658, the “area with substrate ENLYMQS” value came to 0.089, the “area with substrate ENLYPQS” value was found to be 0.0777 and the “area with substrate ENLYQQS” value is 0.0503. Besides, the “area with substrate ENLYSQS” value amounted to 0.0755, the “area with substrate ENLYTQS” value turned out to be 0.0703, the “area with substrate ENLYVQS” value came to 0.128 and the “area with substrate ENLYWQS” value was 0.0708.
Take MGESLFKGPRDYNPISSSICHLTNESDGHTTSLYGIGFGPFGITNKHLFRRNNGTLVVQSLHGVFKVKDTTTLQQHLVDGRDMIIIRMPKDFPPFPQKLKFREPQREERICLVTTNFQTKSMSSMVSDTSCTFPSGDGIFWKHWIQTKDGQCGSPLVSTRDGFIVGIHSASNFTNTNNYFTSVPKNFMELLTNQEAQQWVSGWRLNADSVLWGGHKVFMVKPEEPFQPVKEATQL [I42G]: the “area with substrate ENLYCQS” value is 0.0442, the “area with substrate ENLYDQS” value is 0.0504, the “area with substrate ENLYEQS” value was 0.0531 and the “area with substrate ENLYGQS” value amounted to 0.0505. For the same variant, the “area with substrate ENLYHQS” value amounted to 0.0406, the “area with substrate ENLYIQS” value is 0.043, the “area with substrate ENLYKQS” value came out at 0.0551 and the “area with substrate ENLYMQS” value is 0.0469. Moreover, the “area with substrate ENLYNQS” value worked out at 0.0451, the “area with substrate ENLYPQS” value was found to be 0.04, the “area with substrate ENLYQQS” value was 0.0431 and the “area with substrate ENLYRQS” value was determined as 0.033. The “area with substrate ENLYSQS” value is 0.0425, the “area with substrate ENLYVQS” value came to 0.0475, the “area with substrate ENLYWQS” value came out at 0.0353 and the “area with substrate ENLYYQS” value amounted to 0.0477.
